# The whole screen tested about 310,000 compounds, of which about 14,000 (4.5%) showed an effect of 50% or more. Effects have a minus sign here. Some of the results follow.
# Target: human ether-à-go-go-related gene (hERG) potassium channel (human, UniProt Q12809)
# Assay: primary screen, population patch clamp on CHO cells stably expressing hERG
# 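Also: peak tail current of the secondary pulse compared with the same well before compound.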
# Sequence of human ether-à-go-go-related gene (hERG) potassium channel (Q12809 whole entry, looked up): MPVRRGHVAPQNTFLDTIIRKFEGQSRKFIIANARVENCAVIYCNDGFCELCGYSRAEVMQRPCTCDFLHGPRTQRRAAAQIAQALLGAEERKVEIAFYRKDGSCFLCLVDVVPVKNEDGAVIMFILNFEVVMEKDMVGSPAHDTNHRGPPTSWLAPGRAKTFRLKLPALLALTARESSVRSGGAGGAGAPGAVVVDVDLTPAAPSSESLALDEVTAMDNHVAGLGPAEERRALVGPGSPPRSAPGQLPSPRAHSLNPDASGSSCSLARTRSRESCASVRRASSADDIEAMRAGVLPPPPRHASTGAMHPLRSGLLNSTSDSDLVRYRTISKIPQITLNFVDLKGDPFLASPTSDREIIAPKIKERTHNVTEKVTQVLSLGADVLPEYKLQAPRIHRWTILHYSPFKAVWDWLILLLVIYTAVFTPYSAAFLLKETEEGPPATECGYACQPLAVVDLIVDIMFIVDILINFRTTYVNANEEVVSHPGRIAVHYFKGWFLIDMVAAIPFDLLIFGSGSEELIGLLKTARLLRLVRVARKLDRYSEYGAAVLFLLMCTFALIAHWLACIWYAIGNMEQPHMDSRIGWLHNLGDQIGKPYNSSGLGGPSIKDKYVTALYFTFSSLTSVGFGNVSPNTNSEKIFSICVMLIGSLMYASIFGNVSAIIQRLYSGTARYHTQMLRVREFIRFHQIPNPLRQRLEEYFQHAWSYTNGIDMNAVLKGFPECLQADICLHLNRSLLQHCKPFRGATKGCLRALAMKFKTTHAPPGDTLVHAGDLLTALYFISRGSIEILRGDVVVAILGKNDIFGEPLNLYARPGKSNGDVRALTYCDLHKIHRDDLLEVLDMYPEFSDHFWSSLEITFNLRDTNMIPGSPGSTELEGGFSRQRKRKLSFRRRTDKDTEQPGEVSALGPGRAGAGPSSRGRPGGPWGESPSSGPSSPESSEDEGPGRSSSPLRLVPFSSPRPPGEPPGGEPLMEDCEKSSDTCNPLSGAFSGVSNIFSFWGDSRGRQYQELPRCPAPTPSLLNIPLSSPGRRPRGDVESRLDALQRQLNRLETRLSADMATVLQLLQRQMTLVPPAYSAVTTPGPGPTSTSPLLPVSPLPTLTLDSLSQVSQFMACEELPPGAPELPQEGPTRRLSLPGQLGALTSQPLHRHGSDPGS
row,Structure (SMILES),"hERG current change (%, negative = inhibition) at 10uM [%]"
1,CCOC(=O)c1sc(NC(=O)c2ccoc2C)c(C(N)=O)c1C,5.88
2,O=C(NCCCN1CCCC1=O)c1ccc(NS(=O)(=O)c2cccc([N+](=O)[O-])c2)cc1,2.78
3,COc1cc(Cl)c(S(=O)(=O)NCc2ccccn2)cc1Cl,-3
4,CCOC(=O)c1csc(-c2ccc(OC)c(OC)c2)n1,3.08
5,COc1ccc(CNC(=O)CN(C(=O)c2ccc(CN3CCOCC3)o2)C2CCCC2)cc1,1.15
6,CSCCC(NC(=O)CCN1C(=O)c2ccccc2C1=O)C(=O)O (centres unmarked),12.2
7,CCc1cc(=O)oc2cc(OC(C)=O)cc(OC(C)=O)c12,5.05
8,O=C(N/N=C/c1ccccc1OCc1ccccc1)c1cccs1,5.13
9,COc1ccccc1-n1c(SCC(=O)O)nc2c(sc(=S)n2-c2ccc(C)c(C)c2)c1=O,14.6
10,CCOc1ccc(S(=O)(=O)N2CCC(C(=O)NC3CCCC3)CC2)cc1,1.98
11,CC(C)(C)NC(=O)C1CCN(C(=O)c2ccc(-c3ccccc3)cc2)CC1,-13
12,Cc1ccc(C(=O)Nc2ccc(OCc3ccccc3)cc2)cc1[N+](=O)[O-],0.879
13,COc1ccc(F)cc1C(=O)C1CCCN(C(=O)CSc2ccccn2)C1 (centres unmarked),-7.26
14,COc1cccc(NC2=CC(=O)CC(C)(C)C2)c1,6.99
15,CCC(=O)Nc1ccc(C(=O)NNC(=O)COc2cccc(C)c2)cc1,1.84
16,N#CNC(=Nc1ccc(Cl)cc1)Oc1ccccc1,-3.15
17,CCOC(=O)COc1ccc(Br)cc1C1NC(=O)NC(C)=C1C(=O)NCc1ccccc1 (centres unmarked),-14.8
18,COc1ccc(C(=O)N/N=C/c2ccc(OC)c(COc3ccccc3)c2)cc1,-26.1
19,O=C(NCc1ccc(F)cc1F)Nc1cnccc1C(F)(F)F,3.31

row,Structure (SMILES),"hERG current change (%, negative = inhibition) at 10uM [%]"
1,COc1ccc(N(CC(=O)Nc2ccccc2C(=O)O)S(=O)(=O)c2ccc(C)c([N+](=O)[O-])c2)cc1,19.9
2,O=C(CSc1nnc2ccc(-c3ccccc3)nn12)NCC1CCCO1 (centres unmarked),-5.44
3,COc1cccc(-c2cccc(NC(=O)C3CCN(Cc4ccc(C)o4)CC3)c2)c1,-39.4
4,COc1ccccc1C(=O)NCC(=O)OCC(=O)c1ccc(Cl)s1,8.65
5,COCCn1c(SCC(=O)NCc2ccco2)nnc1-c1c[nH]c2ccccc12,4.06
6,CCOc1ccc(OCC)c(N=c2oc3c(C)ncc(CO)c3cc2C(N)=O)c1,3.76
7,CN1CCc2nc3sc(C(=O)NC(C)(C)C)c(N)c3cc2C1,0.483
8,Cc1c(C(=O)N2CCC(n3nccc3NC(=O)C3CC3)CC2)[nH]c2ccc(Cl)cc12,-59.4
9,CC1(C)CN=C(Nc2ccccc2C(F)(F)F)S1,15.1
10,CC(C)n1cc(/C(N)=N/O)c(=O)n(Cc2ccccc2)c1=O,-5.33
11,Cc1cc(C(=O)N2CCCc3ccccc32)ccc1[N+](=O)[O-],-13.9
12,CC1CCOC2(O1)C(=O)N(CN1CCN(c3cccc(Cl)c3)CC1)c1ccccc12 (centres unmarked),9.18
13,Cc1ccc(N(CCC(=O)NC(C)(C)C)S(=O)(=O)c2ccc(C)cc2)cc1,-7.84
14,CN(C)c1ccc(/C=N/NC(=O)c2ccccc2)cc1,10.9
15,CC1=NN(c2ccc(C)c(C)c2)C(=O)/C1=C\C=C\c1ccc([N+](=O)[O-])o1,12.7
16,COCCCNC(=S)N/N=C/c1ccc(N(C)C)cc1Cl,9.74
17,Cc1ccc(NC(=O)CSc2nncs2)cc1Cl,5.51
18,N#Cc1ccc(CSc2nnc(NC(=O)c3ccc4ncsc4c3)s2)cc1,10.3
19,O=[N+]([O-])c1cnccc1Nc1ccccc1,-6.35

row,Structure (SMILES),"hERG current change (%, negative = inhibition) at 10uM [%]"
1,CCC(=NCCO)c1c(O)n(-c2ccc(Cl)cc2)c(=O)[nH]c1=O,15.5
2,N#Cc1cc2cc3c(cc2nc1N1CCOCC1)OCO3,6.87
3,CCOc1cc(OCC)cc(C(=O)NCCCN2CCOCC2)c1,-0.196
4,CSc1nc(-c2ccc(N(C)C)cc2)c(C#N)c(=O)n1C,-6.91
5,COc1ccccc1N1CCN(c2nc3ccccn3c(=O)c2C=O)CC1,2.35
6,O=C(NCCc1ccccc1)C1CCN(S(=O)(=O)N2CCCC2)CC1,17.2
7,CS(=O)(=O)c1ccc2c(c1)sc1nc(=O)c(/C=C3/C=CC(=O)C(O)=C3)c(N)n12,23.1
8,CCc1cc(CNC(=O)CCc2nnc(CCCc3ccccc3)o2)on1,-15.7
9,CC(C)c1ccc(-c2nn(-c3ccccc3)cc2C2C(C#N)=C(N)OC3=C2C(=O)CC(C)(C)C3)cc1 (centres unmarked),-11.2
10,O=C(CSc1nnc(-c2cccnc2)o1)Oc1ccccc1,1.89
11,COc1ccccc1CNC(=O)c1nccnc1CO,5.79
12,COCCC1CCCCN1Cc1cn(-c2ccccc2)nc1-c1ccc2c(c1)OCO2 (centres unmarked),-55.8
13,N#CC1=C2SCC(O)(c3ccccc3)N2C(=O)CC1c1ccccc1F (centres unmarked),-15.2
14,COc1ccccc1-c1nnc(NC(=O)c2ccc(S(=O)(=O)N(C)C)cc2)o1,-2.44
15,CC(=O)N1CCN(c2cc3c(cc2F)c(=O)c(C(=O)O)cn3C2CC2)CC1,8.31
16,COc1ccc(CNc2oc(Cc3cccc4ccccc34)nc2C#N)cc1,6.28
17,CCc1ccc(NC(=S)N(CCCN2CCOCC2)Cc2ccccn2)cc1,-56.3
18,CC(C)(C)C(=O)NC(=S)Nc1ccccc1F,3.29
